{"source": "the supplement of paper PMC4604168 (melanoma cell lines)", "note": "Some of the results follow. Many values rest on one well or one pass, so single values are uncertain.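 Also: cell number obtained by counting DAPI-stained nuclei in high-throughput microscope images with image analysis software, screen run in 1,536-well plates.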", "data": [{"test_system": "WM1745", "assay": "cell count relative to DMSO control; melanoma cells; higher = more viable cells", "details": "library dose: low library concentration; 72 h", "units": {"cell count": "%"}, "values": [{"smiles": "Nc1ccn([C@@H]2O[C@H](CO)[C@@H](O)C2(F)F)c(=O)n1", "note": "[gemcitabine] + COc1cc2ncnc(Nc3ccc(Oc4ccccc4)cc3)c2cc1OC [SrcI1] (first compound 0.0004 µM, partner dose 2 µM)", "cell count": 71.7}, {"smiles": "CC(=O)O[C@@]12CO[C@@H]1C[C@H](O)[C@@]1(C)C(=O)[C@H](O)C3=C(C)[C@@H](OC(=O)[C@H](O)[C@@H](NC(=O)OC(C)(C)C)c4ccccc4)C[C@@](O)([C@@H](OC(=O)c4ccccc4)[C@H]21)C3(C)C", "note": "[Docetaxel] + O=S(=O)(c1ccccc1)N(CC(F)(F)F)c1ccc(C(O)(C(F)(F)F)C(F)(F)F)cc1 [T0901317] (first compound 0.0001 µM, partner dose 1.4 µM)", "cell count": 46.9}, {"smiles": "CO[C@H]1C[C@@H]2CC[C@@H](C)[C@@](O)(O2)C(=O)C(=O)N2CCCC[C@H]2C(=O)O[C@H]([C@H](C)C[C@@H]2CC[C@@H](OCCO)[C@H](OC)C2)CC(=O)[C@H](C)/C=C(\\C)[C@@H](O)[C@@H](OC)C(=O)[C@H](C)C[C@H](C)/C=C/C=C/C=C/1C", "note": "[everolimus] + O=C(O)C(=O)Nc1sc2c(c1C(=O)O)CCNC2 [TCS401] (first compound 0.02 µM, partner dose 1.66667 µM)", "cell count": 78.6}, {"smiles": "CO[C@H]1C[C@@H]2CC[C@@H](C)[C@@](O)(O2)C(=O)C(=O)N2CCCC[C@H]2C(=O)O[C@H]([C@H](C)C[C@@H]2CC[C@@H](OCCO)[C@H](OC)C2)CC(=O)[C@H](C)/C=C(\\C)[C@@H](O)[C@@H](OC)C(=O)[C@H](C)C[C@H](C)/C=C/C=C/C=C/1C", "note": "[everolimus] + CN(C)S(=O)(=O)c1ccc2c(c1)/C(=C/c1cc3c([nH]1)CCCC3)C(=O)N2 [SU6656] (first compound 0.02 µM, partner dose 0.4 µM)", "cell count": 95.2}]}]}
